# According to patent publication US20230002489A1 (SHANGHAI EPIMAB BIOTHERAPEUTICS, published 2023):
# Where a chain is given by its changes, count along the chain named.
# B1: HuEM0006-01-7 (antibody, human IgG1, kappa)
# heavy: EVQLVQSGAEVKKPGASVKVSCKASGFSFTNYYVHWMRQAPGQGLEWIGWISPGSDNTKYNEKFKGRVTLTADTSISTAYMELSRLRSDDTAVYYCARDDYGNYYFDYWGQGTTVTVSSASTKGPSVFPLAPSSKSTSGGTAALGCLVKDYFPEPVTVSWNSGALTSGVHTFPAVLQSSGLYSLSSVVTVPSSSLGTQTYICNVNHKPSNTKVDKKV[letters of human IgG1 Fc with changes omitted]
# light: DIVMTQSPDSLAVSLGERATINCKSSQSLLNSRTRKNYLAWYQQKPGQPPKLLIYWASTRESGVPDRFSGSGSGTDFTLTISSLQAEDVAVYYCKQSYILRTFGGGTKVEIKRTVAAPSVFIFPPSDEQLKSGTASVVCLLNNFYPREAKVQWKVDNALQSGNSQESVTEQDSKDSTYSLSSTLTLSKADYEKHKVYACEVTHQGLSSPVTKSFNRGEC
# notes: Humanized variant of mAbCD3-001
# B2: HuEM0006-01-1 (antibody, human IgG1, kappa)
# heavy: EVQLVQSGAEVKKPGASVKVSCKASGYTFTNYYVHWVRQAPGQGLEWMGWISPGSDNTKYNEKFKGRVTLTADTSISTAYMELSRLRSDDTAVYYCARDDYGNYYFDYWGQGTTVTVSSASTKGPSVFPLAPSSKSTSGGTAALGCLVKDYFPEPVTVSWNSGALTSGVHTFPAVLQSSGLYSLSSVVTVPSSSLGTQTYICNVNHKPSNTKVDKKV[letters of human IgG1 Fc with changes omitted]
# light: B1 light
# notes: as for B1
# B3: HuEM0006-01-2 (antibody, human IgG1, kappa)
# heavy: EVQLVQSGAEVKKPGASVKVSCKASGYTFTNYYVHWVRQAPGQGLEWIGWISPGSDNTKYNEKFKGRVTLTADTSISTAYMELSRLRSDDTAVYYCARDDYGNYYFDYWGQGTTVTVSSASTKGPSVFPLAPSSKSTSGGTAALGCLVKDYFPEPVTVSWNSGALTSGVHTFPAVLQSSGLYSLSSVVTVPSSSLGTQTYICNVNHKPSNTKVDKKV[letters of human IgG1 Fc with changes omitted]
# light: B1 light
# notes: as for B1
# B4: HuEM0006-01-3 (antibody, human IgG1, kappa)
# heavy: EVQLVQSGAEVKKPGASVKVSCKASGYTFTNYYVHWVRQAPGQGLEWIGWISPGSDNTKYNEKFKGKATLTADTSISTAYMELSRLRSDDTAVYYCARDDYGNYYFDYWGQGTTVTVSSASTKGPSVFPLAPSSKSTSGGTAALGCLVKDYFPEPVTVSWNSGALTSGVHTFPAVLQSSGLYSLSSVVTVPSSSLGTQTYICNVNHKPSNTKVDKKV[letters of human IgG1 Fc with changes omitted]
# light: B1 light
# notes: as for B1
# B5: HuEM0006-01-4 (antibody, human IgG1, kappa)
# heavy: EVQLVQSGAEVKKPGASVKVSCKASGYTFTNYYVHWMRQAPGQGLEWIGWISPGSDNTKYNEKFKGKATLTADTSISTAYMELSRLRSDDTAVYYCARDDYGNYYFDYWGQGTTVTVSSASTKGPSVFPLAPSSKSTSGGTAALGCLVKDYFPEPVTVSWNSGALTSGVHTFPAVLQSSGLYSLSSVVTVPSSSLGTQTYICNVNHKPSNTKVDKKV[letters of human IgG1 Fc with changes omitted]
# light: B1 light
# notes: as for B1
# B6: HuEM0006-01-5 (antibody, human IgG1, kappa)
# heavy: EVQLVQSGAEVKKPGASVKVSCKASGYTFTNYYVHWMRQAPGQGLEWIGWISPGSDNTKYNEKFKGRVTLTADTSISTAYMELSRLRSDDTAVYYCARDDYGNYYFDYWGQGTTVTVSSASTKGPSVFPLAPSSKSTSGGTAALGCLVKDYFPEPVTVSWNSGALTSGVHTFPAVLQSSGLYSLSSVVTVPSSSLGTQTYICNVNHKPSNTKVDKKV[letters of human IgG1 Fc with changes omitted]
# light: B1 light
# notes: as for B1
# B7: HuEM0006-01-6 (antibody, human IgG1, kappa)
# heavy: EVQLVQSGAEVKKPGASVKVSCKASGFSFTNYYVHWMRQAPGQGLEWIGWISPGSDNTKYNEKFKGKATLTADTSISTAYMELSRLRSDDTAVYYCARDDYGNYYFDYWGQGTTVTVSSASTKGPSVFPLAPSSKSTSGGTAALGCLVKDYFPEPVTVSWNSGALTSGVHTFPAVLQSSGLYSLSSVVTVPSSSLGTQTYICNVNHKPSNTKVDKKV[letters of human IgG1 Fc with changes omitted]
# light: B1 light
# notes: as for B1
# B8: HuEM0006-01-8 (antibody, human IgG1, kappa)
# heavy: EVQLVQSGAEVKKPGASVKVSCKASGFSFTNYYVHWMRQAPGQGLEWMGWISPGSDNTKYNEKFKGRVTMTRDTSISTAYMELSRLRSDDTAVYYCARDDYGNYYFDYWGQGTTVTVSSASTKGPSVFPLAPSSKSTSGGTAALGCLVKDYFPEPVTVSWNSGALTSGVHTFPAVLQSSGLYSLSSVVTVPSSSLGTQTYICNVNHKPSNTKVDKKV[letters of human IgG1 Fc with changes omitted]
# light: B1 light
# notes: Humanized variant of mAbCD3-001; also called HuEM0006-01-08
# B9: HuEM0006-01-9 (antibody, human IgG1, kappa)
# heavy: EVQLVQSGAEVKKPGASVKVSCKASGFSFTNYYVHWMKQAPGQGLEWIGWISPGSDNTKYNEKFKGKATLTADTSITTAYMELSRLRSDDTAVYYCARDDYGNYYFDYWGQGTTVTVSSASTKGPSVFPLAPSSKSTSGGTAALGCLVKDYFPEPVTVSWNSGALTSGVHTFPAVLQSSGLYSLSSVVTVPSSSLGTQTYICNVNHKPSNTKVDKKV[letters of human IgG1 Fc with changes omitted]
# light: B1 light
# notes: as for B1
# B10: HuEM0006-01-10 (antibody, human IgG1, kappa)
# heavy: EVQLVQSGAEVKKPGASVKVSCKASGYTFTNYYVHWVRQAPGQGLEWMGWISPGSDNTKYNEKFKGRVTLTADTSISTAYMELSRLRSDDTAVYYCARDDYGNYYFDYWGQGTTVTVSSASTKGPSVFPLAPSSKSTSGGTAALGCLVKDYFPEPVTVSWNSGALTSGVHTFPAVLQSSGLYSLSSVVTVPSSSLGTQTYICNVNHKPSNTKVDKKV[letters of human IgG1 Fc with changes omitted]
# light: B1 light with T5S, N22T
# notes: as for B1
# B11: HuEM0006-01-11 (antibody, human IgG1, kappa)
# heavy: EVQLVQSGAEVKKPGASVKVSCKASGYTFTNYYVHWVRQAPGQGLEWIGWISPGSDNTKYNEKFKGRVTLTADTSISTAYMELSRLRSDDTAVYYCARDDYGNYYFDYWGQGTTVTVSSASTKGPSVFPLAPSSKSTSGGTAALGCLVKDYFPEPVTVSWNSGALTSGVHTFPAVLQSSGLYSLSSVVTVPSSSLGTQTYICNVNHKPSNTKVDKKV[letters of human IgG1 Fc with changes omitted]
# light: B1 light with T5S, N22T
# notes: as for B1
# B12: HuEM0006-01-12 (antibody, human IgG1, kappa)
# heavy: EVQLVQSGAEVKKPGASVKVSCKASGYTFTNYYVHWVRQAPGQGLEWIGWISPGSDNTKYNEKFKGKATLTADTSISTAYMELSRLRSDDTAVYYCARDDYGNYYFDYWGQGTTVTVSSASTKGPSVFPLAPSSKSTSGGTAALGCLVKDYFPEPVTVSWNSGALTSGVHTFPAVLQSSGLYSLSSVVTVPSSSLGTQTYICNVNHKPSNTKVDKKV[letters of human IgG1 Fc with changes omitted]
# light: B1 light with T5S, N22T
# notes: as for B1
# B13: HuEM0006-01-13 (antibody, human IgG1, kappa)
# heavy: EVQLVQSGAEVKKPGASVKVSCKASGYTFTNYYVHWMRQAPGQGLEWIGWISPGSDNTKYNEKFKGKATLTADTSISTAYMELSRLRSDDTAVYYCARDDYGNYYFDYWGQGTTVTVSSASTKGPSVFPLAPSSKSTSGGTAALGCLVKDYFPEPVTVSWNSGALTSGVHTFPAVLQSSGLYSLSSVVTVPSSSLGTQTYICNVNHKPSNTKVDKKV[letters of human IgG1 Fc with changes omitted]
# light: B1 light with T5S, N22T
# notes: as for B1
# B14: HuEM0006-01-15 (antibody, human IgG1, kappa)
# heavy: EVQLVQSGAEVKKPGASVKVSCKASGFSFTNYYVHWMRQAPGQGLEWIGWISPGSDNTKYNEKFKGKATLTADTSISTAYMELSRLRSDDTAVYYCARDDYGNYYFDYWGQGTTVTVSSASTKGPSVFPLAPSSKSTSGGTAALGCLVKDYFPEPVTVSWNSGALTSGVHTFPAVLQSSGLYSLSSVVTVPSSSLGTQTYICNVNHKPSNTKVDKKV[letters of human IgG1 Fc with changes omitted]
# light: B1 light with T5S, N22T
# notes: as for B1
# B15: HuEM0006-01-16 (antibody, human IgG1, kappa)
# heavy: EVQLVQSGAEVKKPGASVKVSCKASGFSFTNYYVHWMRQAPGQGLEWIGWISPGSDNTKYNEKFKGRVTLTADTSISTAYMELSRLRSDDTAVYYCARDDYGNYYFDYWGQGTTVTVSSASTKGPSVFPLAPSSKSTSGGTAALGCLVKDYFPEPVTVSWNSGALTSGVHTFPAVLQSSGLYSLSSVVTVPSSSLGTQTYICNVNHKPSNTKVDKKV[letters of human IgG1 Fc with changes omitted]
# light: B1 light with T5S, N22T
# notes: as for B1
# B16: HuEM0006-01-17 (antibody, human IgG1, kappa)
# heavy: EVQLVQSGAEVKKPGASVKVSCKASGFSFTNYYVHWMRQAPGQGLEWMGWISPGSDNTKYNEKFKGRVTMTRDTSISTAYMELSRLRSDDTAVYYCARDDYGNYYFDYWGQGTTVTVSSASTKGPSVFPLAPSSKSTSGGTAALGCLVKDYFPEPVTVSWNSGALTSGVHTFPAVLQSSGLYSLSSVVTVPSSSLGTQTYICNVNHKPSNTKVDKKV[letters of human IgG1 Fc with changes omitted]
# light: B1 light with T5S, N22T
# notes: as for B1
# B17: HuEM0006-01-18 (antibody, human IgG1, kappa)
# heavy: EVQLVQSGAEVKKPGASVKVSCKASGFSFTNYYVHWMKQAPGQGLEWIGWISPGSDNTKYNEKFKGKATLTADTSITTAYMELSRLRSDDTAVYYCARDDYGNYYFDYWGQGTTVTVSSASTKGPSVFPLAPSSKSTSGGTAALGCLVKDYFPEPVTVSWNSGALTSGVHTFPAVLQSSGLYSLSSVVTVPSSSLGTQTYICNVNHKPSNTKVDKKV[letters of human IgG1 Fc with changes omitted]
# light: B1 light with T5S, N22T
# notes: as for B1
# Target: T1, human CD3 on the surface of Jurkat cells (human, UniProt P07766; P09693; P04234)
# T1 construct: whole, on cells; Endogenous CD3 complex of the Jurkat T cell line; also called cell surface CD3 target on Jurkat cells; CD3-expressing Jurkat cells
# T1 sequence (P07766 23-207, chain 1 of 3): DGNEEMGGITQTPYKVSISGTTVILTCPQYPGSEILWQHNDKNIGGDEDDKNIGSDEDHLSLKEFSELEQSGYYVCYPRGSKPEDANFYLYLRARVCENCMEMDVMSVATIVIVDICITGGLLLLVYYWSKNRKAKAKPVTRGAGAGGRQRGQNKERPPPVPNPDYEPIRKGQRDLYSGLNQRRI
# T1 sequence (P09693 23-182, chain 2 of 3, further chain): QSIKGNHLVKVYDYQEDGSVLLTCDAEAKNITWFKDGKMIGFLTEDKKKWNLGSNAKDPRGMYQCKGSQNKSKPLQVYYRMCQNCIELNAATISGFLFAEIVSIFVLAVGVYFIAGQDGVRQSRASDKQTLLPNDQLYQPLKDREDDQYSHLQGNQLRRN
# T1 sequence (P04234 22-171, chain 3 of 3, further chain): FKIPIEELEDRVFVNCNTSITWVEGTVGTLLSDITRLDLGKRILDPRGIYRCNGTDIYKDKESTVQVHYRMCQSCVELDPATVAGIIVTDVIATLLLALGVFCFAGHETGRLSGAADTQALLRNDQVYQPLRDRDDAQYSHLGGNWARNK
# Test: flow cytometry on Jurkat cells, MFI against antibody conc. (nM)
# Protocol: Different humanized VH and VK combinations led to humanized anti-CD3 variants with different CD3 binding affinities. The binding activity of the humanized variants of mAbCD3-001 were tested via flow cytometry with the human CD3-expressing Jurkat T cell line. 5×10⁵ Jurkat cells in FACS buffer were seeded into each well of a 96-well plate. Cells were centrifuged at 400 g for 5 minutes and supernatants were discarded. For each well, 100 μl of serially diluted antibodies were then added and mixed with the cells. After 40 minutes incubation at 4° C., plates were washed several times to remove excess antibodies. […] After another round of centrifugation and a washing step, cells were resuspended in FACS buffer for reading on a CytoFLEX Flow Cytometer (Beckman Coulter). Median Fluorescence Intensity (MFI) readouts were plotted against antibody concentration and analyzed with GraphPad Prism 5.0 software.
row,Binder,binding result
1,B1,binds
2,B2,binds
3,B3,binds
4,B4,binds
5,B5,binds
6,B6,binds
7,B7,binds
8,B8,binds
9,B9,binds
10,B10,binds
11,B11,binds
12,B12,binds
13,B13,binds
14,B14,binds
15,B15,binds
16,B16,binds
17,B17,binds
